# Results taken from the supplement of paper PMC3334620.
# Over roughly 33,000 sequences, “E-score (-0.5 to 0.5)” has its median near -0.056; the highest 2% begin near 0.38. Some of the results follow.
# Target: Stb4 (UniProt P50104)
# Assay: PBM E-score (8-mer binding enrichment) (E-score (-0.5 to 0.5)); higher = stronger / more preferred TF binding; most listed sequences are background and not binding sites
# Conditions: protein concentration: 200 nM; construct: GST-DNA-binding domain
# In short: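 Yeast transcription factors carrying a GST tag, as full-length proteins or DNA-binding domains, were produced by PURExpress in vitro transcription/translation. About 100-200 nM protein was applied to universal all-10-mer Agilent arrays, double-stranded by primer extension on fresh or once-stripped slides. Bound protein was detected with fluorescent anti-GST, and scans were normalised with masliner. The Universal PBM Analysis Suite gave each ungapped eight-base word, pooled with its reverse complement, an E-score, a modified Wilcoxon-Mann-Whitney statistic.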
row,Sequence,PBM E-score
1,GAGGATCA,-0.15
2,CGAGCAGC,0.15
3,AATTTAGT,-0.0763
4,AGATGGAA,0.106
5,TGCGGCCA,-0.173
6,GTGGTTGA,-0.148
7,CCAAATGG,-0.0447
8,CGGTTCGC,0.0552
9,AAGGCGTA,-0.25
10,ATAGGCTG,-0.11
11,AGTCAGGG,-0.377
12,ACTATGTC,-0.108
13,AGCCTTGC,-0.0915
14,ACGTAGGG,-0.275
15,GCTTCGAC,-0.103
16,CGGTCGTC,0.0906
17,ACCATGGT,-0.278
18,CCCCTTTA,-0.245
19,ACTCTGAG,-0.05
20,GAGAACCA,-0.127
21,ATACTCTC,-0.136
22,CCCCCACC,-0.238
23,CACGGGAA,0.276
24,CCCAGACG,-0.17
25,CCTAGGTA,-0.00105

row,Sequence,PBM E-score
1,AGGCTCAG,-0.347
2,GGCGGAAA,0.277
3,ATACCCCC,0.0757
4,CGGGAAAC,0.357
5,ATCGTCCG,0.233
6,AAATTCAT,-0.0912
7,CACCCGTA,0.204
8,ACTTCATG,-0.153
9,AACAGTTA,0.0464
10,CCGCGAAC,0.145
11,AGAGGAGC,-0.196
12,ACGCGCCG,0.217
13,AATCCATG,-0.139
14,CTCCCATA,-0.109
15,ATCTCTTG,-0.0969
16,GAGGGAAA,-0.248
17,GCTACGCC,-0.239
18,AGGGCACT,-0.187
19,CCGTAACC,0.306
20,ATTGCAGA,-0.00181
21,ACAGCCAC,0.0308
22,CACCCTGG,-0.123
23,CCTCATGC,-0.199
24,GGACTGTA,-0.0624
25,ACATCGCT,-0.103

row,Sequence,PBM E-score
1,CGGCAAAC,0.354
2,ACTCGGGG,0.286
3,AGGTTCCA,0.0324
4,AGGCAGAT,-0.0986
5,CCTCCAGA,-0.0604
6,AATGCGGT,0.0478
7,GGACCACA,0.0635
8,CGTTTTAG,-0.0603
9,ACGAAGTA,-0.0487
10,GCTCAGGA,-0.243
11,AAAGTGTT,0.146
12,TAGAACGA,-0.139
13,ACTCACCC,0.106
14,ACTCCGCC,0.206
15,ACGACAGG,-0.18
16,AATATGTA,-0.0602
17,AGGTTCGC,0.0812
18,CAAGTGAA,-0.0797
19,TGAACGAA,-0.263
20,ATACACCC,0.236
21,CATCCCTC,-0.0859
22,ATCATTGG,-0.267
23,GGAGTCCA,-0.00968
24,TAATTAAA,-0.0457
25,TAAATGCA,-0.016

row,Sequence,PBM E-score
1,AGTCAGAG,-0.252
2,TAATCGCA,-0.138
3,AGCGTTGC,0.0755
4,AAGAGAAG,-0.227
5,CAACGGCG,-0.0275
6,AGTGTTGC,-0.144
7,ACTGTGCA,-0.0936
8,CCTTTTTA,-0.0616
9,CGAGGTTA,0.14
10,TGAGGCCA,0.00562
11,CGTAAATC,0.102
12,AGCCTACG,-0.146
13,CATTGGAC,-0.00489
14,AAGCTTAC,-0.299
15,TCGGTGAA,0.259
16,TAACATGA,-0.098
17,CGCCCTGC,0.0196
18,GAGGGAGA,-0.08
19,AAAACCTC,0.263
20,CAGTGCTC,-0.16
21,ATTAAGCA,-0.0882
22,CACGTACA,-0.059
23,AGTCCGCC,0.234
24,ATAGTAAG,-0.151
25,GACTTCGA,-0.155

row,Sequence,PBM E-score
1,GCGAGTTA,-0.0128
2,CAGCTTCG,0.0466
3,GATTTAGA,0.0797
4,CGCAACCG,0.268
5,AAGCGTAC,-0.183
6,AATCTATA,0.088
7,ATAGGATG,-0.237
8,AGCGAGGC,-0.167
9,CGGGGTGA,0.172
10,CCTGATTC,-0.0894
11,ATTAAGAC,-0.166
12,ATATCACG,-0.0898
13,CGCATAAA,-0.127
14,GCACTCAA,-0.0468
15,ACCCCGGA,0.232
16,TGTACACA,-0.261
17,GAAGCACA,0.102
18,CAATCCCG,0.352
19,ATACCGTG,0.0382
20,ACTACTTG,-0.195
21,ATTTCTAC,0.0311
22,GCACGTGA,-0.185
23,AACTTAAC,0.165
24,CCCCGGGG,0.252
25,CATTAACG,0.0792

row,Sequence,PBM E-score
1,AAGAATCA,-0.0198
2,ACCTGGGC,-0.321
3,GGTTGAAC,-0.00254
4,CATTCAGA,-0.0972
5,ATCCGCTA,0.243
6,ACACATGT,-0.00364
7,GCGTGTCC,0.0304
8,GGTGTTGA,-0.0925
9,AAGGCAAT,-0.154
10,AAGCCCAG,-0.125
11,ATAGCCTG,-0.193
12,ACACATCC,0.228
13,GACTGCAA,-0.18
14,ACATAGAC,-0.193
15,CGCCCCGC,0.161
16,AACGTACT,-0.126
17,TCCAATAA,0.00316
18,ATACTGGA,-0.0296
19,AGCACCGA,0.224
20,AAAAGGCA,-0.0536
21,AAAGTGCT,-0.237
22,CAACCACA,0.0655
23,AAAGGATT,-0.266
24,CTGACAAA,-0.0138
25,ACCGGGGA,0.0642

row,Sequence,PBM E-score
1,ACGTTTGG,-0.251
2,ACACTGCA,-0.169
3,TGAGATCA,-0.147
4,AGCCAACC,0.0376
5,AAGACGAC,-0.0846
6,CTTCTTCC,0.0577
7,CTAGAGTC,-0.272
8,CGAGTGCG,0.0767
9,AGAGACTC,-0.107
10,CTAAAGCA,-0.0261
11,AAGGCATC,-0.107
12,GTGTAAAC,-0.0521
13,ATGTATCG,-0.0501
14,ATCAGGTG,-0.08
15,AACTGTGG,-0.0169
16,CGGAAAAA,0.446
17,ATTATCGC,-0.195
18,CCAATTCC,0.155
19,AGGCAGGC,-0.109
20,AGGGTATG,-0.256
21,ATGGACAA,-0.205
22,AGAAAGGA,-0.161
23,ATTTAACA,-0.105
24,ACCAGAAC,-0.0183
25,AATCAAAT,0.0777

row,Sequence,PBM E-score
1,ATACTCAT,-0.0635
2,CGCGTCAG,-0.106
3,GAGAGGAA,-0.117
4,ACTGAGAG,-0.161
5,AGCGATTG,-0.0885
6,GAGAAGAA,0.0753
7,TGCCAGAA,-0.188
8,TACTTGCA,-0.115
9,ACGGTACG,0.104
10,ACTTCTAA,-0.103
11,GCCCGTCC,0.0561
12,GTGGCATA,0.0633
13,AGTCGAAA,-0.127
14,CCTACATA,-0.102
15,GGGTCTGA,-0.0431
16,AGGTTCTG,-0.267
17,CATTTTGG,-0.133
18,GATACACA,0.0285
19,AGAAATAG,-0.175
20,CTAAATCA,-0.0716
21,GTACCCGA,0.437
22,CTCTCCGA,0.322
23,ACACTGCT,-0.314
24,CACCTCGG,0.393
25,TACATGAA,-0.167

row,Sequence,PBM E-score
1,GGAACTCC,0.211
2,ACTGGACT,-0.274
3,GACATAAA,-0.00649
4,GTCCTGTA,-0.0697
5,GTATCCTA,-0.107
6,AGGACATA,-0.234
7,CACAGACG,-0.222
8,TAGTTTCA,-0.0807
9,GTAAATAA,-0.0867
10,GACAGTCA,-0.0496
11,AGTAGCTC,-0.0881
12,ATATGCCG,0.304
13,CGTCCCGC,0.248
14,AACGTTCG,0.113
15,ACTCGTGA,-0.241
16,AAGCTTTG,-0.0371
17,AAGATAGC,0.0831
18,TCAGGTCA,-0.111
19,ATGTGAGC,-0.233
